Measurements: the supplement of paper PMC3334620
The full ranking holds about 33,000 sequences; the median of “E-score (-0.5 to 0.5)” is about -0.012, and the highest 2% start at about 0.27. The list shows a part of the results.

Each sequence was assayed against T1, Vhr1 (UniProt P40522) (assay: PBM E-score (8-mer binding enrichment) (E-score (-0.5 to 0.5)); higher = stronger / more preferred TF binding; most listed sequences are background and not binding sites). Details: protein concentration: 200 nM; construct: GST-full length.
T1 sequence: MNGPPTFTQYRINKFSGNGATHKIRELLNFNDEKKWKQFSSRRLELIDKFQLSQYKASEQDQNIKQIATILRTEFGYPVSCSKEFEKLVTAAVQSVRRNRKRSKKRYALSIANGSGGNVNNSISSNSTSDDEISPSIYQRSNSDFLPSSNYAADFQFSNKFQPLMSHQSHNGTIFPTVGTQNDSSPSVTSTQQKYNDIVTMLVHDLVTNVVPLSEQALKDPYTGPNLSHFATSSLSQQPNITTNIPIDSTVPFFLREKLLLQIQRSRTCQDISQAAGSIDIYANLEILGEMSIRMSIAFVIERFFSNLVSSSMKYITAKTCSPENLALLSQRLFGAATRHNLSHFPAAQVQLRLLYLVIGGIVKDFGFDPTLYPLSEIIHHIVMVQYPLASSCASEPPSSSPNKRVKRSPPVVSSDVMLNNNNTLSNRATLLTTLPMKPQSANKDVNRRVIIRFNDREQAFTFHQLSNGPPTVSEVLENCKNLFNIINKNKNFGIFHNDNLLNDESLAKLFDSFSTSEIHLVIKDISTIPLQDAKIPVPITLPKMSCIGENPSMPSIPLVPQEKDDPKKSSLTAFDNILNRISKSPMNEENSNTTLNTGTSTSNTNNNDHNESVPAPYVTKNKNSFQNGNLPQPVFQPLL
Protocol: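 Universal 'all 10-mer' protein binding microarrays (Agilent AMADID 015681) probed with GST-tagged S. cerevisiae TFs (full-length or DBD) made by in vitro transcription/translation (PURExpress), about 100-200 nM. Bound TF was detected with fluorescent anti-GST. Each ungapped 8-mer (which stands for itself and its reverse complement) is scored by the PBM enrichment score (E-score), a modified Wilcoxon-Mann-Whitney statistic from -0.5 to +0.5, computed with the Universal PBM Analysis Suite. Scale: above 0.35 generally sequence-specific binding.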

Sequence	PBM E-score
GGAGCACC	-0.0314
GTTGATAA	0.109
GGCCTCCA	-0.0798
ACGGCTTC	-0.178
GAGAATGA	0.0925
CGACCACG	0.00369
CTGCAGCC	-0.0424
ATCGCCGC	0.121
GTCCGCGA	0.0371
AAGGTGCC	-0.141
AACTTTCT	-0.0713
ATTTCTCC	-0.0554
ATAGTAGC	0.0929
AATGCGCC	0.0316
CCATTTTA	-0.111
GGAAGGCA	-0.192
CGTGGCCA	-0.164
GTGTGACA	0.00762
GGACGGCA	-0.0709
CGGATCGC	0.0328
ATACGAAG	-0.145
AAATAAAC	-0.0673
CCGACAGC	-0.116
ACCGTTTC	-0.106
CTACCGTA	0.167

Sequence	PBM E-score
AAGTCTGT	-0.113
GACCGCCC	-0.0912
CGGGTTGC	-0.0604
GCCAACGC	-0.215
GATCAATC	-0.0153
AAACAGGA	0.0183
CAGCGCTG	0.0755
CCGTAGGA	-0.226
CCCTTTAG	-0.343
CTACTAGA	0.0179
AAGACGAA	-0.0662
ATCTCTCC	-0.234
TAATGCAA	-0.0903
CAAATATG	-0.0219
CTAACCAG	0.0386
TAATAGCA	-0.00604
GCCCCCGA	-0.23
ATTTCTTA	-0.13
ACTGTTGG	0.034
AGACGAAT	0.0561
CGATGAAG	-0.068
AAGCATCG	-0.143
ATCTTCCG	-0.054
ACCGATCT	-0.0783
ATACAAAT	0.0417

Sequence	PBM E-score
ATGATATA	0.0327
CTACTCCC	0.12
AGGTGTAT	0.11
ATAGCACA	0.234
ACGGTTAC	0.0539
CGTAAACG	-0.276
CTTGGGAC	-0.0152
CCGCAATC	0.0238
AGAGTCTC	0.191
CCTTAACA	-0.264
AGGGGATA	0.0949
ATTTAGTG	0.165
GCATTTGA	0.0275
AGTTCCGA	0.136
ACTTCGTC	0.0428
ACGGGGTA	-0.0475
CCGACTTC	-0.223
TGCATAAA	0.0296
GGTTGTCA	0.0912
AGGACCTC	-0.00731
AAGACTCT	0.209
GAAACGTA	-0.0795
CCGAGGAC	-0.171
GAACAGCA	0.0177
ACAGTCGT	0.0666

Sequence	PBM E-score
GTGGCGAA	-0.0714
ATGACAAC	0.0379
GCTCAACA	-0.157
AAGCGACT	0.127
AAAATTCC	-0.302
CACGAAGC	0.0674
ACTTGCCT	-0.0226
GTTTCCCA	0.129
GATGCGAC	0.102
CGCGGCAC	0.0304
GCAAACCC	-0.0203
GTAAGGGA	-0.13
AAACGGGT	-0.0906
CTTAATCA	0.214
AACGTTGC	0.0114
AGCAGCGA	0.0486
ACGACATA	-0.0639
CTAGGACA	-0.0587
ACAATACT	0.167
AAGCTTCA	-0.158
CCTATAGG	-0.243
CACCGCCC	0.293
CTTGCTGA	-0.0484
CGCGAGTC	0.355
CGAGTGTA	-0.0117

Sequence	PBM E-score
ACACGGAT	0.287
CTAGCCCA	-0.0668
AGTTCAGA	-0.232
CGCTCACA	0.137
AGGACCTG	-0.1
ATCAGCTA	0.0387
AGGATGTC	0.107
GAAACATA	0.2
CGATGACA	0.0847
CTGGCGGA	-0.08
GCGCACTA	-0.0419
GCGCGCCC	-0.0677
AAGTGAAA	-0.0891
CTACAACA	-0.0223
ACTATTGC	0.0584
ATAGACGA	0.0089
CCATGAAG	0.0475
CCGCTCAC	-0.0465
ATCCTGCC	-0.0296
ACGTTGGG	0.057
GCTTACAC	0.101
GGAACAAC	-0.0355
TCAGGAGA	0.0747
CCGTAACG	-0.131
GAGGGAAC	-0.11

Sequence	PBM E-score
GAGGTAAA	-0.0937
ACGGTATA	-0.0661
GGAGAGCC	-0.161
AACGTGTC	-0.101
GTGCGGCA	0.0419
ACAATAGC	-0.0489
CCGTCTGA	-0.0642
CCGTTTGA	-0.0968
ACTTAAGA	-0.0666
CGCCTTGC	0.00127
TGACGTAA	-0.212
AGGATTTG	-0.0325
CTCGTCAG	0.0896
CCGCTCTC	-0.153
ACATGCCA	0.0538
AATAATTC	-0.0658
ATCCCTGC	-0.0685
ACCCAGAA	0.168
AAATTAGG	-0.0705
AGGACTAC	0.067
ATTTAGGA	0.0363
AAGAGTCC	-0.149
CAGGCACC	-0.144
GCCTCTGA	-0.0365
ATAATGAA	0.0974

Sequence	PBM E-score
AGGAGATA	-0.111
GGGCCGTA	-0.123
ACGCGGAG	0.157
CGGTCCCC	-0.112
GACCAGAC	-0.141
ATAGCAGG	0.0907
AACTCAGG	-0.0804
CGCTGTAG	0.0714
CGTCTTAG	-0.307
CATCTGTA	-0.12
AGTGGCTC	0.13
AAGAACTA	-0.0721
AGGTACAG	-0.0563
CACCAACA	0.187
GATATTGA	0.0222
TCGAGTCA	0.399
TAGAAACA	-0.169
GAATTTAA	-0.119
GTCGCCAA	0.0702
TCACAACA	0.12
ATCGCAGC	0.0887
GCTGTAAA	-0.274
